# Results from patent EP2057185B1, “POLYMYXIN DERIVATIVES AND USES THEREOF” (Northern Antibiotics Oy, priority 2006, dated 2008).
# Not every detail of the peptide structures is certain; ends, links or a residue may be inferred. Bridge positions count the residues as written; N and C are the ends. Square brackets hold non-standard residues; d marks the D form. Peptide text beside a SMILES is read from it. * marks the point of attachment. Decanoyl = CCCCCCCCCC(=O)*; Octanoyl = CCCCCCCC(=O)*; Dab = NCC[C@H](N)C(=O)O; Abu = CC[C@H](N)C(=O)O
# How the values were obtained:
# A. baumannii ATCC 19606 [1] = experiment: Growth inhibition around wells on LB agar plates; type: cell-based, Acinetobacter baumannii; settings: for Antibacterial activity 4 µg: growth inhibition area around a well containing 4 µg; for Antibacterial activity 10 µg: growth inhibition area around a well containing 10 µg
# Method: (§1) From an overnight-grown culture of IH3080 on LB agar, a suspension of approx. 10^8 cells/ml was prepared in 0.9% NaCl. Aliquots of this suspension were then pipetted on the agar plates and the plates were gently shaken to spread the suspension evenly on the entire surface of the plate. Thereafter, the unabsorbed part of the suspension was removed by using a Pasteur pipette. After the surface had dried, small wells (diameter, 2 mm) were drilled on the plates (five wells per plate) by using a sterile sharp-edged narrow metal tube, single-use pipette tip, and vacuum suction. Samples (4 µl and 10 µl) of the peptide solution in 0.9% NaCl (at concentrations of 1 µg/ml and 0.1 µg/ml) were then pipetted to the wells and the sample fluids were allowed to absorb. Controls included 0.9% NaCl solution without the compound to be tested. The plates were then incubated for 18 h at 37°C whereafter the diameters of growth inhibition zones around each well were measured; the diameter of the well itself was […]. Finally, the diameters were converted to surface areas of growth inhibition (in square mm).
# (§2) Direct antibacterial activity of twelve NAB compounds against Acinetobacter baumannii ATCC 19606 and Pseudomonas aeruginosa ATCC 27853 was tested by using the susceptibility determination method described in Example 2. Five compounds (NAB7062, NAB734, NAB737, NAB739, and NAB740) had notable activity against A. baumannii. […] The antibacterial activity of NAB739 and NAB740 were as strong as or even stronger than that of polymyxin B.
# [2] = test system: Ps. aeruginosa ATCC 27853; experiment: Growth inhibition around wells on LB agar plates; type: cell-based, Pseudomonas aeruginosa; settings: for Antibacterial activity 4 µg: growth inhibition area around a well containing 4 µg; for Antibacterial activity 10 µg: growth inhibition area around a well containing 10 µg
# Method: as §1, §2
# E. coli IH3080 [3] = experiment: Growth inhibition around wells on LB agar plates; type: cell-based, Escherichia coli; settings: 18 h at 37°C; for Antibacterial activity at 4 µg: growth inhibition area around a well containing 4 µg of compound; for Antibacterial activity at 10 µg: growth inhibition area around a well containing 10 µg of compound
# Method: Peptides synthesized in Example 1, all carrying at least two (2) but not more than three (3) positive charges, were studied for their ability to inhibit the growth of E. coli. This was tested employing LB agar (LB Agar Lennox, Difco, BD, Sparks, MD, U.S.A) plates. The indicator organism E. coli IH3080 (K1:O18) was an encapsulated strain originally isolated from a neonate suffering from meningitis (Vaara et al. 1984) and obtained from National Public Health Institute, Helsinki, Finland.
# as §1, with “Samples (4 µl and 10 µl) of the peptide solution in 0.9% NaCl (at concentrations of 1 µg/ml and 0.1 µg/ml) were then pipetted to the wells and the sample fluids were allowed to absorb.” left out
# E. coli IH3080 [4] = experiment: Growth inhibition around wells on LB plates containing rifampin (sensitization); type: cell-based, Escherichia coli; settings: well containing 4 µg of compound; for Antibacterial activity in the presence of rifampin concn (µg/ml) of 0: plates with no rifampin; for Antibacterial activity in the presence of rifampin concn (µg/ml) of 0.1: rifampin 0.1 µg/ml; for Antibacterial activity in the presence of rifampin concn (µg/ml) of 1.0: rifampin 1.0 µg/ml
# Method: as §1, with “Samples (4 µl and 10 µl) of the peptide solution in 0.9% NaCl (at concentrations of 1 µg/ml and 0.1 µg/ml) were then pipetted to the wells and the sample fluids were allowed to absorb.” left out, “mm). […] Louis, MO, U.S.A).” for “mm).”
# A. baumannii ATCC 19606 [5] = experiment: as above; type: cell-based, Acinetobacter baumannii; settings: well containing 4 µg; for Antibacterial activity, rifampin 0: no rifampin (control); for Antibacterial activity, rifampin 0.1: rifampin 0.1 µg/ml; for Antibacterial activity, rifampin 0.3: rifampin 0.3 µg/ml
# [6] = test system: Ps. aeruginosa ATCC 27853; experiment: as above; type: cell-based, Pseudomonas aeruginosa; settings: well containing 4 µg; for Antibacterial activity, rifampin 0: no rifampin (control); for Antibacterial activity, rifampin 0.1: rifampin 0.1 µg/ml; for Antibacterial activity, rifampin 0.3: rifampin 0.3 µg/ml
SMILES,Antibacterial activity 4 µg (A. baumannii ATCC 19606 [1]) [square millimeters],Antibacterial activity 10 µg (A. baumannii ATCC 19606 [1]) [square millimeters],Antibacterial activity 4 µg [2] [square millimeters],Antibacterial activity 10 µg [2] [square millimeters],Antibacterial activity at 4 µg (E. coli IH3080 [3]) [square millimeters],Antibacterial activity at 10 µg (E. coli IH3080 [3]) [square millimeters],Antibacterial activity in the presence of rifampin concn (µg/ml) of 0 (E. coli IH3080 [4]) [square millimeters],Antibacterial activity in the presence of rifampin concn (µg/ml) of 0.1 (E. coli IH3080 [4]) [square millimeters],Antibacterial activity in the presence of rifampin concn (µg/ml) of 1.0 (E. coli IH3080 [4]) [square millimeters],"Antibacterial activity, rifampin 0 (A. baumannii ATCC 19606 [5]) [square millimeters]","Antibacterial activity, rifampin 0.1 (A. baumannii ATCC 19606 [5]) [square millimeters]","Antibacterial activity, rifampin 0.3 (A. baumannii ATCC 19606 [5]) [square millimeters]","Antibacterial activity, rifampin 0 [6] [square millimeters]","Antibacterial activity, rifampin 0.1 [6] [square millimeters]","Antibacterial activity, rifampin 0.3 [6] [square millimeters]"
"CCCCCCCC(=O)N[C@H](C(=O)N[C@@H](CCN)C(=O)N[C@H]1CCNC(=O)[C@H]([C@@H](C)O)NC(=O)[C@H](CCN)NC(=O)[C@H](CC)NC(=O)[C@H](CC(C)C)NC(=O)[C@@H](Cc2ccccc2)NC(=O)[C@H](CCN)NC1=O)[C@@H](C)O [NAB 716, OA-Thr-Dab-cy[Dab-Dab-DPhe-Leu-Abu-Dab-Thr-]] (Octanoyl-T[Dab][Dab][Dab][dF]L[Abu][Dab]T; lactam 3-C)",0,0,0,0,13,64,13,133,165,0,0,64,0,0,0
"CCCCCCCC(=O)N[C@H](C(=O)N[C@@H](CCN)C(=O)N[C@H]1CCNC(=O)[C@H]([C@@H](C)O)NC(=O)[C@H](CC)NC(=O)[C@H](CCN)NC(=O)[C@H](CC(C)C)NC(=O)[C@@H](Cc2ccccc2)NC(=O)[C@H](CCN)NC1=O)[C@@H](C)O [NAB 717, OA-Thr-Dab-cy[Dab-Dab-DPhe-Leu-Dab-Abu-Thr-]] (Octanoyl-T[Dab][Dab][Dab][dF]L[Dab][Abu]T; lactam 3-C)",0,0,0,0,0,0,0,71,95,0,0,50,0,0,0
"CCCCCCCC(=O)N[C@H](C(=O)N[C@@H](CC)C(=O)N[C@H]1CCNC(=O)[C@H]([C@@H](C)O)NC(=O)[C@H](CCN)NC(=O)[C@H](CCN)NC(=O)[C@H](CC(C)C)NC(=O)[C@@H](CC(C)C)NC(=O)[C@H](CCN)NC1=O)[C@@H](C)O [NAB 718, OA-Thr-Abu-cy[Dab-Dab-DLeu-Leu-Dab-Dab-Thr-]] (Octanoyl-T[Abu][Dab][Dab][dL]L[Dab][Dab]T; lactam 3-C)",0,0,0,0,0,0,0,13,133,0,0,38,0,0,0
"CCCCCCCC(=O)N[C@H](C(=O)N[C@@H](CC)C(=O)N[C@H]1CCNC(=O)[C@H](CC(C)C)NC(=O)[C@H](CCN)NC(=O)[C@H](CCN)NC(=O)[C@H](CC(C)C)NC(=O)[C@@H](Cc2ccccc2)NC(=O)[C@H](CCN)NC1=O)[C@@H](C)O [NAB 719, OA-Thr-Abu-cy[Dab-Dab-DPhe-Leu-Dab-Dab-Leu-]] (Octanoyl-T[Abu][Dab][Dab][dF]L[Dab][Dab]L; lactam 3-C)",0,0,0,0,7,50,7,79,95,0,154,133,0,0,7
CCCCCCCCCC(=O)N[C@H]1CCNC(=O)[C@H]([C@@H](C)O)NC(=O)[C@H](CCN)NC(=O)[C@H](CCN)NC(=O)[C@H](CC(C)C)NC(=O)[C@@H](Cc2ccccc2)NC(=O)[C@H](CCN)NC1=O [NAB 736] (Decanoyl-[Dab][Dab][dF]L[Dab][Dab]T; lactam 1-C),0,0,38,79,0,0,0,113,133,0,95,154,38,38,38
